# Data as given in article PMC4336329 (PLoS ONE, 2015).
# Out of some 310,000 compounds screened, about 2,200 (0.71%) showed an effect of 50% or more. The effect is printed as a negative number. The list shows a part of the results.
# Biological target: human ether-à-go-go-related gene (hERG) potassium channel (human, UniProt Q12809)
# Experiment: primary screen, population patch clamp on CHO cells stably expressing hERG
# Chain of human ether-à-go-go-related gene (hERG) potassium channel (Q12809 whole entry, looked up): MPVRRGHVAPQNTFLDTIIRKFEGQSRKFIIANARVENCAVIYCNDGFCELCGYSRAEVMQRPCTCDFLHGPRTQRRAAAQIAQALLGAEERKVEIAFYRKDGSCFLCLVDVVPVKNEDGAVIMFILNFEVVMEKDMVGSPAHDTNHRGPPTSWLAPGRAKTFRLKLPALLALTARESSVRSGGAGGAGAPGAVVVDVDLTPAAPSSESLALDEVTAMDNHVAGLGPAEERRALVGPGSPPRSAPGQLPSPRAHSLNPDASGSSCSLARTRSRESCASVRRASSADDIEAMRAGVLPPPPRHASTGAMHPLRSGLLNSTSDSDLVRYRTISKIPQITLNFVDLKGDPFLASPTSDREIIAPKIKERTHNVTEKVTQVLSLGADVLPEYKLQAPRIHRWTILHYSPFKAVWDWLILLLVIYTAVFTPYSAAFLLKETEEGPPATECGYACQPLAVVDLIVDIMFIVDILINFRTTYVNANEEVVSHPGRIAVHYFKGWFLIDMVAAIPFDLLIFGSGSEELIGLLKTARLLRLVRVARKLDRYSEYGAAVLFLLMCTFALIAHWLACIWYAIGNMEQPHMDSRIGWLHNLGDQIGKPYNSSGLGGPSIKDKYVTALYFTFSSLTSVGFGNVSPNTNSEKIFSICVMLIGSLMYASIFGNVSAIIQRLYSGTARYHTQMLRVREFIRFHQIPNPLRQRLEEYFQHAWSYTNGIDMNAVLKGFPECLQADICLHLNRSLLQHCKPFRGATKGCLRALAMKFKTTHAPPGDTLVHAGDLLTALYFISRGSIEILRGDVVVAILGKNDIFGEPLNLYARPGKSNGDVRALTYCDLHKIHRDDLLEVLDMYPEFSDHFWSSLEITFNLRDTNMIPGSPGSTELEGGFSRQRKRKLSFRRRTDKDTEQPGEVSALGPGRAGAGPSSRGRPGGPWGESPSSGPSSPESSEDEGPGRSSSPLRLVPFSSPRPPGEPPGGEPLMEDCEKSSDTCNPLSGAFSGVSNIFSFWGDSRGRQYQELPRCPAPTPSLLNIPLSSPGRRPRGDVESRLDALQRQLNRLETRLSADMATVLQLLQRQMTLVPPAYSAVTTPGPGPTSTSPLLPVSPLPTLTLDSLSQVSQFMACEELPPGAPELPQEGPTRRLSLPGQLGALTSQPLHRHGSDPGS
row,SMILES,"hERG current change (%, negative = inhibition) at 1uM"
1,Cc1ccc(C(=O)C2=C(O)C(=O)N(c3ncccn3)C2c2ccc(F)cc2)o1 (centres unmarked),34.4%
2,CCOC(=O)N1CCN(c2cc(=O)n(C3CCCCC3)c(=O)[nH]2)CC1,11.1%
3,CCN1c2ccccc2-c2nc3ccccc3n2C1c1ccccn1 (centres unmarked),-23.4%
4,Cc1ccccc1-n1c(SCC(=O)Nc2cccc3ccccc23)nc(O)cc1=O,15.9%
5,CCc1ccc(NC(=S)N2CCN(c3cccc(OC)c3)CC2)cc1,7.12%
6,CC1(C)COC2(OC1)C(=O)Nc1ccccc12,11.2%
7,Cl.O=C(CN1C2=NCCN2c2ccccc21)N1CCOCC1,7.12%
8,COc1ccc(NC(=O)CN2CCN(Cc3ccc4c(c3)OCO4)CC2)cc1OC.O=C(O)C(=O)O,4.15%
9,COCCCN1CN(Cc2ccccc2)CNC1=S,5.8%
10,COc1ccc(CN2CC(C(=O)NCCCN3CCN(C)CC3)CC2=O)cc1 (centres unmarked),9.04%
11,COc1cc(Cl)c(C)cc1NC(=O)CCCN1C(=O)CCC1=O,1.8%
12,CCN(CC)c1nc2n(c(=O)n1)CCO2,11.8%
13,NC(=O)NC(=O)CSc1nc(C2CCCCC2)n(-c2ccccc2)n1,11.8%
14,COc1ccccc1NS(=O)(=O)c1cc(NC(=O)C(C)(C)C)ccc1N1CCOCC1,-4.51%
15,Cc1ccccc1NC(=O)COc1cccc2c1CCNC2=O,9.18%
16,COc1ccc(Cl)cc1-c1nc(SCC(=O)N(C)C)n[nH]1,16.7%
17,CC(=O)NC(CC(=O)Oc1ccc(C)cc1Br)c1ccccc1 (centres unmarked),7.85%
18,COc1ccc(-c2csc(NC(CO)c3nc4ccccc4n3Cc3ccc(C)cc3)n2)cc1 (centres unmarked),11.4%
19,Cc1ccc(NC(=O)c2ccc(NS(=O)(=O)/C=C/c3ccccc3)cc2)nc1,-1.05%
20,Cc1ccc(Cl)cc1NC(=O)C(=O)N1CCCCC1,4.49%
21,COC(=O)c1ccccc1NC(=O)CN1CCC(n2nnc3cc(F)ccc32)CC1,-2.96%
22,COC(=O)c1cc(S(=O)(=O)N2c3ccccc3CC2C)c[nH]1 (centres unmarked),7.2%

row,SMILES,"hERG current change (%, negative = inhibition) at 1uM"
1,CCOc1ccc(C(=O)Oc2cc(C)[nH]c(=O)c2[N+](=O)[O-])cc1,5.87%
2,Cc1ccnc(NS(=O)(=O)c2ccc(CC(C)C)cc2)c1,8.54%
3,Cn1ccc(/C=N/N=C2/NC(=O)CS2)n1,18.7%
4,CC(C)CCN1C(=O)c2ccc(C(=O)N3CCCCC3)cc2C1=O,3.62%
5,COc1ccc(S(=O)(=O)N2CCCC(C(=O)NCC3CCCO3)C2)cc1OC (centres unmarked),14.7%
6,CC1(C)CC(=O)C=C(Nc2ccc3c(c2)CCC3)C1,7.82%
7,C[C@H](NC(=O)[C@@H]1CSC2c3ccccc3C(=O)N21)C(=O)NC1CCCC1 (some centres unmarked),18.5%
8,CC(C)(C)c1nc(NCCN2CCOCC2)c2nnn(Cc3ccccc3Cl)c2n1,22.7%
9,CCCCC(=O)Nc1cccc(NC(=O)C(C)C)c1,13%
10,CCC1CC(/C(C)=N/NC(N)=O)OC1=O (centres unmarked),4.16%
11,O=C(Nc1ncc([N+](=O)[O-])s1)c1cccc([N+](=O)[O-])c1,0.896%
12,CC(C)(C)Cc1nc(-c2ccccn2)no1,6.13%
13,Cc1cccc(OCc2n[nH]c(=S)n2Cc2ccccc2)c1,16.5%
14,CCCCc1ccc(S(=O)(=O)N2CCC3(CC2)OCCO3)cc1,17.5%
15,Cc1ccc(NS(=O)(=O)c2ccc(C(=O)NCc3cccnc3)cc2)cc1,9.58%
16,CCc1nn(CC(=O)NCCN2CCN(C)CC2)c(=O)c2cc3occc3n12,12.1%
17,CCOc1ccccc1/C=c1\sc2ncnn2c1=O,-21.1%
18,CC1=C(C(=O)NCc2ccc(Cl)cc2)C2(CCC(C)CC2)OC1=O (centres unmarked),3%
19,Clc1ccccc1OCCCCN1CCCCC1,6.87%
20,CC(=O)c1ccc(N2CCN(C(=S)Nc3ccc(Oc4ccccc4)cc3)CC2)cc1,5.86%
21,COc1ccc(C2/C(=C(/O)c3ccc(Br)cc3)C(=O)C(=O)N2C)cc1OC (centres unmarked),6.24%
22,O=C(NCCc1c[nH]c2ccccc12)c1ccc([N+](=O)[O-])cc1,1.04%
